# Inconclusive means that the source gave no clear call. Such entries were picked first, then a sample of the others. Entries that show only a call come without a potency. For some assays here: Where the call is inconclusive, the potency comes from a doubtful curve fit. The source made the active and inactive calls. Unless noted, the call rests on the fitted dose curve; in most records, active means well fitted curve in the direction sought with a large enough effect in the repeat runs; inconclusive means weak or mixed curves; inactive means no such curve, though single readings can be large; an effect the other way counts as inactive or inconclusive.
# Tests used:
# [1] = qHTS assay to identify small molecule agonists of the estrogen related receptor (ERR) signaling pathway (AID 1224820); further: potency means the concentration at half of the fitted maximal effect
# Procedure, shortened: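 ERR reporter cells (NTP line) plated 2,000/well, incubated 6 h at 37 C/5% CO2, then pinned with compounds in DMSO and held 18 h at 37 C. One-Glo added; luminescence read after 30 min at room temperature.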
# [2] = qHTS assay for small molecule disruptors of the mitochondrial membrane potential - cell viability (AID 720634; calls by dose curve;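 further: human HepG2 liver cancer cells; nearly all actives have a fitted effect of over 20% in size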)
# Procedure, shortened: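 HepG2, 1 hr compound, 37 C. ATP luminescence via CellTiter-Glo, 30 min RT, same well as m-MPI.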
# [3] = A CellTox Green Cytotoxicity Assay to monitor cytotoxicity in HepG2 cells - 0 hour (AID 1224882); conditions: CellTox Green fluorescence; further: potency means the concentration at half of the fitted maximal effect; nearly all actives have a fitted effect of over 35% in size
# Procedure, shortened: (§1)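 Using 1536-well format, dye-containing HepG2 suspension was seeded, allowed 5 h at 37 C/5% CO2, dosed by pintool with compounds, positive and negative controls, and imaged for fluorescence across 40 h.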
# [4] = A CellTox Green Cytotoxicity Assay to monitor cytotoxicity in HepG2 cells - 8 hour (AID 1224890); further: nearly all actives have a fitted effect of over 45% in size; further: potency means the concentration at half of the fitted maximal effect
# Procedure, shortened: as §1
# [5] = qHTS assay to identify small molecule antagonists of the TGF-beta/Smad signaling pathway (AID 1346924; active means well fitted inhibition curve with a large enough effect in the signal ratio in the repeat runs, not every such curve was filed as active; inconclusive means weak or mixed curves; the % refers to the signal ratio); conditions: SBE-bla HEK293T, TGF-beta/Smad reporter, beta-lactamase ratio; activity, negative = inhibition: at 76.8 µM (top of the series) unless noted
# Procedure, shortened: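 SBE-bla HEK 293T cells were plated overnight, then received compound in DMSO plus TGF-beta1 (added as a 0.25 ng/mL solution) and were incubated 5 h at 37 C. Beta-lactamase reporter activity was read after 2 h at room temperature with LiveBLAzer B/G FRET substrate (ex 405, em 460/530 nm).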
# [6] = qHTS assay to identify small molecule agonists of the estrogen related receptor (ERR) signaling pathway from Tox21 library (AID 1224849; calls by dose curve; further: nearly all actives have a fitted effect of over 15% in size); conditions: ERR reporter cell line, ONE-Glo luciferase, 18 h; at 92.4 µM (top of the series) unless noted
# Procedure, shortened: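 Screening used an NTP-provided ERR luciferase cell line. Compounds in DMSO were added 6 h after seeding and left 18 h at 37 C before a 30 min ONE-Glo step and luminescence reading.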
# [7] = qHTS assay to identify small molecule HDAC inhibitors (AID 1259364); further: potency means the concentration at half of the fitted maximal effect;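 further: wild-type HCT-116 cells with endogenous class I/II HDAC activity; nearly all actives have a fitted effect of over 45% in size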
# Procedure, shortened: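 Read-out: luminescence of HDAC-Glo I/II reagent, 30 min RT, reflecting class I/II deacetylase activity in whole HCT-116 cells pre-exposed 2 h to DMSO-dissolved compounds.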
# [8] = qHTS assay to identify small molecule agonists of the androgen receptor (AR) signaling pathway in the presence of an antagonist - cell viability counter screen (AID 1259379); further: nearly all actives have a fitted effect of over 25% in size; further: potency means the concentration at half of the fitted maximal effect
# Procedure, shortened: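 Seed MDA-kb2 at 3,000 cells/well; incubate 5 hr, 37C, 0% CO2. Add nilutamide to 3.0uM final, then pin compounds at 15 concentrations. Incubate 16 hr. Add CellTiter-Fluor at 15 hr, read fluorescence after 1 hr.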
# [9] = qHTS assay to identify small molecule antagonists of the glucocorticoid receptor (GR) signaling pathway - cell viability counter screen (AID 720693); conditions: GR-bla HeLa viability, CellTiter-Glo luminescence, 18 h, with 5 nM dexamethasone present; viability change, negative = cytotoxic: at 58.5 µM (top of the series) unless noted; further: nearly all actives have a fitted effect of over 55% in size
# [10] = target: Acetylcholinesterase (Homo sapiens) (UniProt P22303); experiment: Acetylcholinesterase (AChE) small molecule antagonists: colormetric cell-based qHTS assay (AID 1347395; calls by dose curve; further: nearly all actives have a fitted effect of over 30% in size; further: potency means the concentration at half of the fitted maximal effect)
# Procedure, shortened: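 Colorimetric readout: DTNB quantifies thiocholine from acetylthiocholine hydrolysed by endogenous AChE of SH-SY5Y cells (2,000/well, plated overnight). Compound pretreatment 30 min, substrate incubation 90 min, both 37 C.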
# Aromatase (Homo sapiens) = Aromatase (Homo sapiens) (UniProt P11511); experiment: qHTS assay to identify aromatase inhibitors (AID 743083); further: nearly all actives have a fitted effect of over 55% in size; further: potency means the concentration at half of the fitted maximal effect
# [11] = qHTS assay to identify small molecule that activate the aryl hydrocarbon receptor (AhR) signaling pathway - cell viability counter screen (AID 743086); further: nearly all actives have a fitted effect of over 45% in size; further: potency means the concentration at half of the fitted maximal effect;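 on viability change, negative = cytotoxic: HepG2 liver cells carrying the AhR DRE luciferase reporter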
# Procedure, shortened: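 Cytotoxicity counter screen: CellTiter-Fluor signal (30 min, 37 C) in 4000 HepG2 cells/well carrying the DRE-luciferase reporter, following 24 h compound exposure at 37 C.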
# [12] = qHTS RealTime-Glo MT Cell Viability Assay in HepG2 cells - 24 hour (AID 1224867); further: nearly all actives have a fitted effect of over 50% in size; further: potency means the concentration at half of the fitted maximal effect
# Procedure, shortened: (§2)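 Cells + NanoLuc/prosubstrate dispensed (600 cells/well) → 5 h at 37 C/5% CO2 → compounds in DMSO transferred → 40 h incubation at 37 C, luminescence read at 0, 8, 16, 24, 32, 40 h.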
# [13] = qHTS assay to identify small molecule phospholipidosis (PLD) inducers (AID 1259344; active means well fitted curve in the direction sought with a large enough effect; inconclusive means small, poorly fitted or top-dose-only effect, or another doubt; inactive means no such curve, though single readings can be large; an effect the other way counts as inactive or inconclusive; further: potency means the concentration at half of the fitted maximal effect)
# Procedure, shortened: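 Fluorescent phospholipid staining (LipidTOX Red) measured by automated microscopy in fixed HepG2 cells after 24 h treatment; nuclei counterstained with Hoechst 33342; amiodarone as reference inducer.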
# [14] = tested on: thyroid hormone receptor (rat, GH3 cells); experiment: qHTS assay to identify small molecule agonists of the thyroid receptor (TR) signaling pathway (AID 743066; calls by dose curve); conditions: GH3.TRE-Luc cells, TR agonist luciferase, 24 h; activation: at 83.9 µM (top of the series) unless noted
# [15] = qHTS RealTime-Glo MT Cell Viability Assay in HepG2 cells - 32 hour (AID 1224877); further: nearly all actives have a fitted effect of over 55% in size
# Procedure, shortened: as §2
# [16] = A CellTox Green Cytotoxicity Assay to monitor cytotoxicity in HEK293 cells - 16 hour (AID 1224888); further: nearly all actives have a fitted effect of over 35% in size; further: potency means the concentration at half of the fitted maximal effect
# Procedure, shortened: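 Fluorescence intensity, read at 0, 8, 16, 24, 32 and 40 h of compound treatment, reflected dye binding to DNA of dead HEK293 cells; compounds (23 nL, DMSO) were added 5 h after plating cells with reagent.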
# [17] = qHTS assay to identify small molecule agonists of the hypoxia (HIF-1) signaling pathway - cell viability counter screen (AID 1224844; calls by dose curve; further: nearly all actives have a fitted effect of over 50% in size; further: potency means the concentration at half of the fitted maximal effect)
# Procedure, shortened: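 Cells (HRE-bla ME-180, 2,000 per well) sat 5 hrs at 37C, got compound for 17 hrs, were read for CCF4-AM FRET, and were finally lysed with CellTiter-Glo for a 30 min room-temperature luminescence read.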
# [18] = qHTS assay for small molecules that induce genotoxicity in human embryonic kidney cells expressing luciferase-tagged ATAD5 - cell viability (AID 651634; calls by dose curve; further: nearly all actives have a fitted effect of over 25% in size)
# Procedure, shortened: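 Viability read: CellTiter-Fluor fluorescence, 30 min at 37C. Cells: HEK293T, luciferase-tagged ATAD5. Exposure: 15.5 hr, 37C, 5% CO2, compound or DMSO vehicle.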
# [19] = qHTS RealTime-Glo MT Cell Viability Assay in HepG2 cells - 0 hour (AID 1224889); further: nearly all actives have a fitted effect of over 50% in size; further: potency means the concentration at half of the fitted maximal effect
# Procedure, shortened: as §2
# Tags describe the fitted curve by direction and shape.
# UniProt P22303, sequence (P22303 whole entry, looked up): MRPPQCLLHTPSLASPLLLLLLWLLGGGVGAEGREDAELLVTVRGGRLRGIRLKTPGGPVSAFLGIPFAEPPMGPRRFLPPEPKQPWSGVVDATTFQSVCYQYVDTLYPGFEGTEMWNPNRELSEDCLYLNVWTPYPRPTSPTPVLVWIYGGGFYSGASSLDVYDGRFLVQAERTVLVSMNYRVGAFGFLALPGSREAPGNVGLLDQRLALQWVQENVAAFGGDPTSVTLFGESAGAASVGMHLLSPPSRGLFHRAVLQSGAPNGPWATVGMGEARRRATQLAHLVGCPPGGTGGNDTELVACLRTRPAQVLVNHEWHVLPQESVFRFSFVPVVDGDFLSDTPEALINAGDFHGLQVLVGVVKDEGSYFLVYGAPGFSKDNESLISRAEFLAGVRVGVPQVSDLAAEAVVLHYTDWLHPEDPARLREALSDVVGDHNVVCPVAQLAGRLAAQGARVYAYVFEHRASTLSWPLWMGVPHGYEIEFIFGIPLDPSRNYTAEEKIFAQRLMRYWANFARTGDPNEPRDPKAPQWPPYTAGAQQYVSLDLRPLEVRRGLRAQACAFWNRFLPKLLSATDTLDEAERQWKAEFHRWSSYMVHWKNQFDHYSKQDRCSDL
# UniProt P11511, sequence (P11511 whole entry, looked up): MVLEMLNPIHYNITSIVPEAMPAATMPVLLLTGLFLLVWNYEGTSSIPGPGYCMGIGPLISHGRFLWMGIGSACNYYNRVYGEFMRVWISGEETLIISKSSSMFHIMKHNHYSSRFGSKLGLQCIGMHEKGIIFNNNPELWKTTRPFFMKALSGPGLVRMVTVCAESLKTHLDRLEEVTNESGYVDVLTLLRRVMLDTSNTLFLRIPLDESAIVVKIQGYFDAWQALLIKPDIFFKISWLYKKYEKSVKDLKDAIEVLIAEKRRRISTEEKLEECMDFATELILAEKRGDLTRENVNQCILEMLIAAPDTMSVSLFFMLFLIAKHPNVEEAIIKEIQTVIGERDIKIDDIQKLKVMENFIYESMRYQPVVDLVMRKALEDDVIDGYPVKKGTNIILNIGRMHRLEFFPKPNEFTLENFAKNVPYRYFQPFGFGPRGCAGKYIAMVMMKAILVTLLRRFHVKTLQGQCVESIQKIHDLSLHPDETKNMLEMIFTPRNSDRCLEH
compound,measurement,setting,value
CN1CC[C@@]2(C)c3cc(O)ccc3N(C)C12 (some centres undefined),Potency,[1],inactive
S=c1[nH]c2ccccc2[nH]1,Potency,[2],inactive
same,Potency,[3],"inconclusive: 21.9 µM [activator, single point]"
same,Potency,[4],"inconclusive: 21.9 µM [activator, single point]"
same,"activity, negative = inhibition",[5],inconclusive: -1.28%
COc1ccccc1N,"activity change, positive = activation",[6],inconclusive: 17.3%
C(COCC1CO1)OCC1CO1 (centres undefined),"activity, negative = inhibition",[5],inconclusive: -25.4%
CC#Cc1cc(C)nc(Nc2ccccc2)n1,Potency,[7],"inconclusive: 61.1 µM [inhibitor, partial curve, poor fit]"
same,Potency,[8],inactive
O=[N+]([O-])/C=C/c1ccc2c(c1)OCO2,Potency,[1],inactive
COP(=O)(OC)O/C(C)=C/C(=O)N(C)C,Potency,[9],inactive
same,Potency,[10],active: 40.2 µM
O=C(Cc1ccccc1)c1ccccc1,Potency,Aromatase (Homo sapiens),inactive
same,Potency,[4],"inconclusive: 54.9 µM [activator, single point]"
same,"activity, negative = inhibition",[5],inconclusive: -8.48%
CC[C@H](O)C(C[C@H](C)N(C)C)(c1ccccc1)c1ccccc1,Potency,[11],"inconclusive: 69.9 µM [falling, single point]"
same,Potency,[12],inactive
same,Potency,[13],"inconclusive: 7.94 µM [activator, single point]"
same,Potency,[10],inactive
NNC(N)=O,Potency,[14],inactive
Cc1ccc(-c2nc3ccc(C)cn3c2CC(=O)N(C)C)cc1,Potency,[15],inactive
NNC(=O)c1ccc(O)cc1,Potency,[1],"inconclusive: 33.5 µM [activator, partial curve, poor fit]"
CCCCN(CCCC)C(=S)[S-].CCCCN(CCCC)C(=S)[S-].[Ni+2],Potency,[8],inactive
N#CC(C#N)=Cc1ccc(O)c(O)c1,Potency,[3],active: 23.9 µM
same,Potency,[4],inactive
CN[C@@H]1C[C@@H](c2ccc(Cl)c(Cl)c2)c2ccccc21,activation,[14],inconclusive: -9.72% [phenotype inactive]
same,Potency,Aromatase (Homo sapiens),"inconclusive: 33.5 µM [inhibitor, single point]"
same,Potency,[13],"inconclusive: 14.1 µM [activator, single point]"
O=P(O)(O)C(Cl)(Cl)P(=O)(O)O,Potency,Aromatase (Homo sapiens),inactive
same,Potency,[11],inactive
CC(C)NC(C)Cc1ccc(I)cc1 (centres undefined),Potency,[13],inactive
CCOC(=O)c1ccccc1S(=O)(=O)NC(=O)Nc1nc(Cl)cc(OC)n1,Potency,[16],"inconclusive: 54.9 µM [activator, single point]"
NC1(c2ccccc2)CCCCC1,Potency,[13],active: 8.91 µM
COc1ccccc1N1CCNCC1,Potency,[7],inactive
CCCC[N+]1(C)CCCC1 (tested in a mixture with another compound),Potency,[9],inactive
CCCCC#N,Potency,[17],inactive
CN1C(=O)COc2c(C(=O)NC3CN4CCC3CC4)cc(Cl)cc21 (centres undefined),Potency,[10],active: 38.9 µM
O=C(CCCN1CCC(n2c(=O)[nH]c3ccccc32)CC1)c1ccc(F)cc1,Potency,[18],inactive
same,Potency,[8],"inconclusive: 26.6 µM [cytotoxic, single point]"
OP(O)c1ccccc1,"viability change, negative = cytotoxic",[9],inconclusive: 34.8% [at 78.9 µM]
COc1ncc(F)c2nc(S(=O)(=O)Nc3c(F)cccc3F)nn12,Potency,[16],"inconclusive: 13.9 µM [activator, partial curve]"
same,Potency,[4],"inconclusive: 39.1 µM [activator, partial curve, poor fit]"
O=C(O)C1C(C(=O)O)C2(Cl)C(Cl)=C(Cl)C1(Cl)C2(Cl)Cl (centres undefined),Potency,[17],inactive
CC(O)CN(CC(C)O)CC(C)O (centres undefined),Potency,[10],"inconclusive: 63.6 µM [inhibitor, partial curve, poor fit]"
Cc1nc(N(C)C)nc(OC(=O)N(C)C)c1C,Potency,[18],inactive
c1cc[n+]2c(c1)-c1cccc[n+]1CC2,Potency,[18],inactive
S=C=S,Potency,[12],inactive
OCCSCSCCO,Potency,[19],inactive
COc1ccc(CN2CCNCC2)c(OC)c1OC,Potency,[2],inactive
CC(C)(N)Cc1ccc(Cl)cc1,Potency,[2],inactive
same,Potency,[14],inactive
CCCCCCCCSC(=O)Oc1cc(Cl)nnc1-c1ccccc1,Potency,[16],inactive
O=NN(CCO)CCO,Potency,[18],inactive
COP(=S)(OC)Oc1ccc(S(N)(=O)=O)cc1,Potency,[11],"inconclusive: 33.5 µM [rising, partial curve, poor fit]"
same,Potency,[12],"inconclusive: 26.8 µM [falling, single point]"
same,Potency,[19],"inconclusive: 26.8 µM [cytotoxic, single point]"
CCOP(=O)(O)C(N)=O,Potency,[18],inactive
C1CS1,Potency,[7],inactive
O=S(=O)(c1ccccc1)c1ccccc1,"activity change, positive = activation",[6],inconclusive: 5.25%
C[C@H](N)[C@H](O)c1ccc(O)c(O)c1,"activity change, positive = activation",[6],inconclusive: -0.117% [at 42.5 µM]
same,Potency,[3],active: 26.8 µM
same,Potency,[16],active: 21.3 µM
CC(C)(COCC1CO1)COCC1CO1 (centres undefined),Potency,[8],inactive
Cc1coc2c1CCC(C)C2 (centres undefined),Potency,[11],inactive
CCCCC(=O)Cl,Potency,[15],inactive
O=C(O)C(O)C(O)C(=O)O (centres undefined),Potency,[14],inactive
O=C(Cl)C(Cl)(Cl)Cl,Potency,[17],"inconclusive: 0.174 µM [cytotoxic, full curve, poor fit]"
Nc1c(Br)cc(Br)c2c1C(=O)c1ccccc1C2=O,"activity change, positive = activation",[6],inconclusive: 16.3% [at 19 µM]
same,"activity change, negative = cytotoxic",[15],inactive: 5.09% [at 15.8 µM]
same,"activity, negative = inhibition",[5],inconclusive: 4.07% [at 15.8 µM]
COc1cc(C[C@@H](C)N)c(OC)cc1Br,Potency,[19],"inconclusive: 63.3 µM [rising, partial curve, poor fit]"
N#CC1(N=NC2(C#N)CCCCC2)CCCCC1,Potency,[19],inactive
CCN[C@@H](C)Cc1ccccc1,Potency,[17],inactive
CCC(C)n1c(=O)[nH]c(C)c(Br)c1=O (centres undefined),Potency,[2],inactive
